We go through three molecules from paper PMC6760808.

Amino acid sequences for entries named in this document (tags omitted).
UniProt Q68CZ1: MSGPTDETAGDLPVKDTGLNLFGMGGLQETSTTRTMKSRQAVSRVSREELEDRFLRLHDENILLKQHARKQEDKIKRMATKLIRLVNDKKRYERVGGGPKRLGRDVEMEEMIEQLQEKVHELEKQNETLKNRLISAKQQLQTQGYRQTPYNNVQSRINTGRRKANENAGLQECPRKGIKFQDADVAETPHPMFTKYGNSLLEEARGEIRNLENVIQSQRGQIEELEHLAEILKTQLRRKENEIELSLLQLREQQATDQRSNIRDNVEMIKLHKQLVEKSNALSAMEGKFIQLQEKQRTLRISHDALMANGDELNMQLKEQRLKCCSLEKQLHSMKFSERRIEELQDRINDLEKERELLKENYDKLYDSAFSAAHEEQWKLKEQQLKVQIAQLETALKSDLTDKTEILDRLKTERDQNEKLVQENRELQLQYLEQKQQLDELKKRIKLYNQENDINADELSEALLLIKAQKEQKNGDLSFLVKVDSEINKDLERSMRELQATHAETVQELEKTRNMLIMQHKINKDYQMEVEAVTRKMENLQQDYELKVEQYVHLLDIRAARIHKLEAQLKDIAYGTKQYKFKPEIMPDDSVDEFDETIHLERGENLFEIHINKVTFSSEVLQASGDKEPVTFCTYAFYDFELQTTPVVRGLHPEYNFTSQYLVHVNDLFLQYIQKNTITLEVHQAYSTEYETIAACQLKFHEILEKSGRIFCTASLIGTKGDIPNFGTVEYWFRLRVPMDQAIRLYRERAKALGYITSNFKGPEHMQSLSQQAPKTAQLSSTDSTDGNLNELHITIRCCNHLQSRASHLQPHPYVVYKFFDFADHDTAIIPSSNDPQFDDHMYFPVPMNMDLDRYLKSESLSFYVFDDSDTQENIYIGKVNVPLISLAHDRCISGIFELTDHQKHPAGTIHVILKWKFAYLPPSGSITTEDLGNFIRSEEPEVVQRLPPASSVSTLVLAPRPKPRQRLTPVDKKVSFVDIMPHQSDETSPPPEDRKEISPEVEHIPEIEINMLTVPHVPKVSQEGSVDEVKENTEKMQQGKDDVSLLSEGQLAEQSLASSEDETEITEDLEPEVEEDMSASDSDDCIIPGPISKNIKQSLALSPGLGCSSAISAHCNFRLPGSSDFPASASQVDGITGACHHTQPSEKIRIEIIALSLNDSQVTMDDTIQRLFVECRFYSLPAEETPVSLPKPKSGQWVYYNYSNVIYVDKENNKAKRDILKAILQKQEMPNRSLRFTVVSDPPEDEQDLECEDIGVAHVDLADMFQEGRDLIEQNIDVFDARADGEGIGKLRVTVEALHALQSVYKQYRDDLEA
UniProt Q7Z494: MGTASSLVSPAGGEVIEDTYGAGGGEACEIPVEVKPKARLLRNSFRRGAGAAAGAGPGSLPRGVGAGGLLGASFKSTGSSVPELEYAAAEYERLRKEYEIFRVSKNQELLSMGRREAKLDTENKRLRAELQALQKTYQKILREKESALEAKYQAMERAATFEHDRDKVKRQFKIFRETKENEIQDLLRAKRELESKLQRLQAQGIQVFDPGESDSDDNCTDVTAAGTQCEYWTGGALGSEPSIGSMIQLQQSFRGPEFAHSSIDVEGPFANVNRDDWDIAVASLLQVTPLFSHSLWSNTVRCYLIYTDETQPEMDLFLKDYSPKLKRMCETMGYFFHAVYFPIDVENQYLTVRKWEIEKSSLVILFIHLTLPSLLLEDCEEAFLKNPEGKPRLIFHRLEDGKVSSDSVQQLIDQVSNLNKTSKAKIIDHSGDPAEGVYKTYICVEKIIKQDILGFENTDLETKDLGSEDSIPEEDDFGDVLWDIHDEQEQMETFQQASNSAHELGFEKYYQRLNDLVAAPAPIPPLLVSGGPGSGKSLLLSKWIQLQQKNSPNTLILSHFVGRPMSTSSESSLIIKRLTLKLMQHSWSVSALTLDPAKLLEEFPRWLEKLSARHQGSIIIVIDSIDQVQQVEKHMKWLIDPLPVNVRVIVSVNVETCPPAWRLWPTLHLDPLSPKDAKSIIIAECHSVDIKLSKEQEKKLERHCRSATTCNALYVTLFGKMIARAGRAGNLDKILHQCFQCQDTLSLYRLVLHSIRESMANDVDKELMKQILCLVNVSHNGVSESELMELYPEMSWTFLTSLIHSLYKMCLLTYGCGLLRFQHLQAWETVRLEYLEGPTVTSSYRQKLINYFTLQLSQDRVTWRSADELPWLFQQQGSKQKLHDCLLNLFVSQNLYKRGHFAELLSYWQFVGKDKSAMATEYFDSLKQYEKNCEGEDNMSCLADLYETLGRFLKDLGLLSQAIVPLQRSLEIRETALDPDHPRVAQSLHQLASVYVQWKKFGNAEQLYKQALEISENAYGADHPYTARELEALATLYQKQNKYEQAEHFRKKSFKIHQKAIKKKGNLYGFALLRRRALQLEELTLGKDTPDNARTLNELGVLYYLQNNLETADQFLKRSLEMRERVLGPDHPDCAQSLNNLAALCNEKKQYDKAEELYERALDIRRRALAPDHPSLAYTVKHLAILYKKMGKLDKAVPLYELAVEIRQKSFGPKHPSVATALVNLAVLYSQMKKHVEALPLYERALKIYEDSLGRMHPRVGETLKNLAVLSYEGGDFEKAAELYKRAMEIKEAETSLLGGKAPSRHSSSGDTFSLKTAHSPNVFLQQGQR

Holding throughout (test): two-hybrid; directed yeast two-hybrid by mating: AH109 with pGBKT7 (BD, bait) fusions x Y187 with pACT2 (AD, prey) fusions; growth on -leu,-trp,-his plates scored as strong, medium or weak; each mating repeated at least three times
In test [1] the target is NPHP8 (RPGRIP1L) (human) (UniProt Q68CZ1).
Test [2] concerns the target T1, NPHP2 (inversin) (UniProt Q9Y283).
T1 sequence: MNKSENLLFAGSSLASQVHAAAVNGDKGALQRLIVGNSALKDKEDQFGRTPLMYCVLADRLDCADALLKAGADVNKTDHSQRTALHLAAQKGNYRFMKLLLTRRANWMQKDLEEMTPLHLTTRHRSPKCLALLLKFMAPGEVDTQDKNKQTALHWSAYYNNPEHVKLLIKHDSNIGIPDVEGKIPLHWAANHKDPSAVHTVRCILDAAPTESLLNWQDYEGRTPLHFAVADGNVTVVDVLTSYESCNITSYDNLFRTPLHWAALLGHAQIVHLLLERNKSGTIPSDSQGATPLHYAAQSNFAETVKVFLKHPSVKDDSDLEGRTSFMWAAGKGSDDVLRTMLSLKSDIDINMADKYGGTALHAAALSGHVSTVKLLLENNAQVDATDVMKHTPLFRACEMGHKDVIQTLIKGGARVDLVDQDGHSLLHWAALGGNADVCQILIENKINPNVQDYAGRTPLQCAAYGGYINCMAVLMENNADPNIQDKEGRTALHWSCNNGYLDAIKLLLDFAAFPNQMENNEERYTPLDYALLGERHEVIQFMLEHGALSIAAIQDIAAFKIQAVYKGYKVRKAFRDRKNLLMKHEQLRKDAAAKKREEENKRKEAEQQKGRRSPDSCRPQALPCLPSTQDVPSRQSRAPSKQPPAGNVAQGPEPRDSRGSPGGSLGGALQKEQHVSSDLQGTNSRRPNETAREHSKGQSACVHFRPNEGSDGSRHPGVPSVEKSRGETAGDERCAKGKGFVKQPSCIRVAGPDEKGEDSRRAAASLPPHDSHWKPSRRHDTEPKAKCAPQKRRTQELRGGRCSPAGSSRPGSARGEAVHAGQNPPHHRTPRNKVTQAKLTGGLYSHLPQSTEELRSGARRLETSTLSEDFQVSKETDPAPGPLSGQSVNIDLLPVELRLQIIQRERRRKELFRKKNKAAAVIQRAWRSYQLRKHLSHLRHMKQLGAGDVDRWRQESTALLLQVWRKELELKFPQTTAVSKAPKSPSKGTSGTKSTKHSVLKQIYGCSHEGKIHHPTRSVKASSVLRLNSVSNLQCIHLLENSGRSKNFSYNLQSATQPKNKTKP

For test [3], the target named is NPHP3 (human) (UniProt Q7Z494).

Results are given in words; binding and its absence hold for the method and conditions named. Some entries that bind do so weakly or less than the wild type.

B1: NPHP2 (inversin) (protein, UniProt Q9Y283 1-1065)
chain: T1 sequence
In the case of B1, the binding entry in test [1] and in test [2] was “binds” throughout.

B2: Nup85 (protein, UniProt Q8R480 1-656)
chain: MEELDCEPAVTWIPGVNSKKKQMCFDWGPGEMLLCETSFNQTGKSEKVPSCPFIYIIRKDVDVYSQILRKLFNESHGIFVGLQKIEEELSGKSRKAQLVRVSKNYRSVIRACMEEMHQVAIAAKDPASGRQFSSQVSILSAMELIWNLCEILFIEVAPAGPLLLHLLDWVRLHVCEVDSLSADVLGGDNPSKHENFWDLVTVLVLQGRLDEARQMLAKEADANPSCAGMCRVLGDLMRTMPILSPGNTQTLTELELKWQHWREECERHLQDNTFAANPRLESLCKIMLGDEAALLEQKELLSNWYHFLVTRLLYSNPTVKPIDLHFYAQSSLDMFLGGESSPEPLDNILMAAFEFDIHQVIKECSIALSNWWFVAHLTDLLDHCRLLQSHNLYFGSNMREFLLLEYASGLFAHHSLWQLGVDYFDYCPELGRVSLELHIERIPLNTEQKALKVLRICEQRQMTEQVKSICKILAMKAVRNNRLGSALSWSIRAKDAAFATLVSDRFLRDYCERGCFSDLDLIDNLGSAMMLSDRLTFLGKYREFHRLYGEKRFGDAASLLLSLMTSQIAPRSFWMTLLTDALPLLEQKQVIFSAEQTYELMRCLEDLASGRPECGEPDAQRLQDDDIETTKVEMLRLALARNLARAIIREGSLEGS
As for B2, the binding result in test [1] was “binds”.

B3: Nup160 (protein, UniProt Q12769 1-1436)
chain: MLHLSAAPPAPPPEVTATARPCLCSVGRRGDGGKMAAAGALERSFVELSGAERERPRHFREFTVCSIGTANAVAGAVKYSESAGGFYYVESGKLFSVTRNRFIHWKTSGDTLELMEESLDINLLNNAIRLKFQNCSVLPGGVYVSETQNRVIILMLTNQTVHRLLLPHPSRMYRSELVVDSQMQSIFTDIGKVDFTDPCNYQLIPAVPGISPNSTASTAWLSSDGEALFALPCASGGIFVLKLPPYDIPGMVSVVELKQSSVMQRLLTGWMPTAIRGDQSPSDRPLSLAVHCVEHDAFIFALCQDHKLRMWSYKEQMCLMVADMLEYVPVKKDLRLTAGTGHKLRLAYSPTMGLYLGIYMHAPKRGQFCIFQLVSTESNRYSLDHISSLFTSQETLIDFALTSTDIWALWHDAENQTVVKYINFEHNVAGQWNPVFMQPLPEEEIVIRDDQDPREMYLQSLFTPGQFTNEALCKALQIFCRGTERNLDLSWSELKKEVTLAVENELQGSVTEYEFSQEEFRNLQQEFWCKFYACCLQYQEALSHPLALHLNPHTNMVCLLKKGYLSFLIPSSLVDHLYLLPYENLLTEDETTISDDVDIARDVICLIKCLRLIEESVTVDMSVIMEMSCYNLQSPEKAAEQILEDMITIDVENVMEDICSKLQEIRNPIHAIGLLIREMDYETEVEMEKGFNPAQPLNIRMNLTQLYGSNTAGYIVCRGVHKIASTRFLICRDLLILQQLLMRLGDAVIWGTGQLFQAQQDLLHRTAPLLLSYYLIKWGSECLATDVPLDTLESNLQHLSVLELTDSGALMANRFVSSPQTIVELFFQEVARKHIISHLFSQPKAPLSQTGLNWPEMITAITSYLLQLLWPSNPGCLFLECLMGNCQYVQLQDYIQLLHPWCQVNVGSCRFMLGRCYLVTGEGQKALECFCQAASEVGKEEFLDRLIRSEDGEIVSTPRLQYYDKVLRLLDVIGLPELVIQLATSAITEAGDDWKSQATLRTCIFKHHLDLGHNSQAYEALTQIPDSSRQLDCLRQLVVVLCERSQLQDLVEFPYVNLHNEVVGIIESRARAVDLMTHNYYELLYAFHIYRHNYRKAGTVMFEYGMRLGREVRTLRGLEKQGNCYLAALNCLRLIRPEYAWIVQPVSGAVYDRPGASPKRNHDGECTAAPTNRQIEILELEDLEKECSLARIRLTLAQHDPSAVAVAGSSSAEEMVTLLVQAGLFDTAISLCQTFKLPLTPVFEGLAFKCIKLQFGGEAAQAEAWAWLAANQLSSVITTKESSATDEAWRLLSTYLERYKVQNNLYHHCVINKLLSHGVPLPNWLINSYKKVDAAELLRLYLNYDLLEEAVDLVSEYVDAVLGKGHQYFGIEFPLSATAPMVWLPYSSIDQLLQALGENSANSHNIALSQKILDKLEDYQQKVDKATRDLLYRRTL
Take B3: the binding result in test [1] was “binds”; in test [3] it was “binds weakly”; in test [2], “binds”.
